Data taken from PubChem BioAssay AID1460 (National Center for Advancing Translational Sciences (NCATS), 2008).
Where “and” joins values, the source holds several entries; their conditions need not be identical. Identical values can stand only once. Among all 270,000 compounds or so, about 5,800 (2.1%) were called active. The inconclusive results got no clear call from the source; some entries with a clear call stand among them for comparison. The call rests on the fitted dose curve; in most records, active means well fitted inhibition curve with a large enough effect; inconclusive means small, poorly fitted or top-dose-only effect; inactive means flat fitted curve, though single readings scatter. Potencies beside an inconclusive call are fits to weak or partial responses and may not hold up.

Molecular target: Microtubule-associated protein tau (Homo sapiens) (UniProt P10636)
Sequence of UniProt P10636 (P10636 whole entry, looked up): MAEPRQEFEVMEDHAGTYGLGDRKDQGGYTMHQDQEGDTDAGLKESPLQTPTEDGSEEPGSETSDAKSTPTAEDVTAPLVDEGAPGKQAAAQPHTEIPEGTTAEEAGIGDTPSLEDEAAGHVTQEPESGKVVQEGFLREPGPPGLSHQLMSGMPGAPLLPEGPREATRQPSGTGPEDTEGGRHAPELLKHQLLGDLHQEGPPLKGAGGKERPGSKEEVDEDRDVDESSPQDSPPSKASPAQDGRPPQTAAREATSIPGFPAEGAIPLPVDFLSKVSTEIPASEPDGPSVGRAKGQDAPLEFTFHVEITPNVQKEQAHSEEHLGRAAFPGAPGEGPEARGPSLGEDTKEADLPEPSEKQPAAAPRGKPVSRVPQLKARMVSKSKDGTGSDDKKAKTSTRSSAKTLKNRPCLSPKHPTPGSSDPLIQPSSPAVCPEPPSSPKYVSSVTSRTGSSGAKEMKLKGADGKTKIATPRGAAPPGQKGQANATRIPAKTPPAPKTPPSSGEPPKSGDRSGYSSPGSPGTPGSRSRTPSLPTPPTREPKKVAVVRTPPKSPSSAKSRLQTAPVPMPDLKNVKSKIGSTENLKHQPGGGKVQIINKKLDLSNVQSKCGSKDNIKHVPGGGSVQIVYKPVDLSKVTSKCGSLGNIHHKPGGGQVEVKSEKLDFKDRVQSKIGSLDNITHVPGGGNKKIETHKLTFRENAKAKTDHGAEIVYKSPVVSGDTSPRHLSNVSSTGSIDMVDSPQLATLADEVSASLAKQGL
Assay: qHTS for Inhibitors of Tau Fibril Formation, Thioflavin T Binding; further: nearly all actives have a fitted effect of over 55% in size
Details: recombinant tau K18 P301L (four-repeat tau fragment), heparin-induced fibrillization, ThT fluorescence; series mostly up to 57.4 µM
Summary of the method: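 Recombinant human tau K18 fragment […] carrying P301L, 15 uM unlabeled plus 0.24 uM Alexa 594-labeled, was fibrillized with 20 uM heparin in 100 mM sodium acetate pH 7 for 6 hr at 37 C; 30 uM ThT fluorescence read after 1 hr.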
Potency means the concentration at half of the fitted maximal effect; tags describe the fitted curve by direction and shape.

| Compound | Potency |
| --- | --- |
| O=c1cc2c(nn1Cc1c(Cl)cccc1Cl)-c1ccccc1CC2 | inconclusive: 15.8 µM [inhibitor, partial curve] |
| CCn1c(=O)n(CC)c2cc(N3CCCCC3)c(NC(=O)Nc3cc(Cl)ccc3OC)cc21 | inactive |
| CCOCCCNS(=O)(=O)c1ccc2c(c1)CCN2C(=O)CC | inactive |
| CCOC(=O)c1c(C)[nH]c(CCC(=O)Nc2ccccc2C(=O)OC)c1C | inconclusive: 17.8 µM [inhibitor, single point] |
| Cc1ccccc1NC(C)C(=O)N/N=C/c1c[nH]c2ccccc12 (stereo unspecified) | inconclusive: 28.2 µM [inhibitor, single point] |
| Cc1ccc(NC(=S)N(CCCN2CCCC2)Cc2cccn2Cc2ccc(Cl)cc2)cc1Cl | inconclusive: 28.2 µM [inhibitor, partial curve] |
| Cc1cc(C)nc(S/C=C/C(=O)c2ccc(F)cc2)n1 | inconclusive: 11.2 µM [inhibitor, partial curve] |
| O=C(CCn1c(=O)c2sccc2n(Cc2cc(=O)n3ccccc3n2)c1=O)NCc1ccco1 | inconclusive: 28.2 µM [inhibitor, partial curve] |
| COc1ccccc1N1CCN(C/C=C/c2ccc(N(C)C)cc2)CC1 | inconclusive: 39.8 µM [inhibitor, single point] |
| Cc1cccc(N2CCN(C(=O)C3CCN(c4nnc(-n5cccc5)s4)CC3)CC2C)c1 (stereo unspecified) | inconclusive: 6.31 µM [inhibitor, partial curve] |
| Cc1cc(C=C2C(=O)CCCC2=O)c(C)n1-c1ccccc1 | inconclusive: 22.4 µM [inhibitor, single point] |
| COc1ccccc1NC(=O)CC1Nc2ccccc2NC1=O (stereo unspecified) | inconclusive: 39.8 µM [inhibitor, single point] |
| CC(=O)Oc1ccc(Cl)cc1/C=C/c1cc(OC(C)=O)c2ccccc2n1 | inconclusive: 11.2 µM [inhibitor, partial curve] |
| CCOC(=O)c1nnc2c(Br)c(-c3ccccc3)nn2c1C | inconclusive: 17.8 µM [inhibitor, partial curve] |
| CCn1c(C)c(C)c2cc(C(=O)NCCc3ccc(C)cc3)ccc21 | inconclusive: 8.91 µM [inhibitor, partial curve] |
| COc1cc([N+](=O)[O-])ccc1NC(=O)CCCOc1ccccc1 | inconclusive: 22.4 µM [inhibitor, single point] |
| CN(C)c1ccc(CN(C(=O)COc2ccccc2)C2CCS(=O)(=O)C2)cc1 (stereo unspecified) | inactive |
| Clc1cccc(N2CCN(c3ncnc4nc[nH]c34)CC2)c1 | inconclusive: 2 µM [inhibitor, full curve] |
| COc1ccc(C(=O)Nc2ccc(S(=O)(=O)N3CCCCC3C)cc2)c(OC)c1OC (stereo unspecified) | inactive |
| Cc1cc(OC(C(=O)O)c2ccccc2)c2c(C)c(Cc3ccccc3)c(=O)oc2c1 (stereo unspecified) | inconclusive: 25.1 µM [inhibitor, partial curve, poor fit] |
| CC(=O)Oc1cccc(-c2nc3ccccc3c(=O)o2)c1 | inconclusive: 8.91 µM [inhibitor, partial curve] |
| CN(C)c1ccc([C@@H]2[C@@H]([N+](=O)[O-])[C@H]3C=Cc4ccccc4N3[C@H]2C(=O)c2ccc(Cl)cc2)cc1 | inconclusive: 15.8 µM [inhibitor, partial curve] |
| CCOc1ccc(NS(=O)(=O)c2ccc(NC(=O)N3CCCC3)cc2)cc1 | inactive |
| CC1(C(=O)Nc2nccs2)Cc2ccccc2C(=O)O1 (stereo unspecified) | inactive |

| Compound | Potency |
| --- | --- |
| CCOc1ccc(C(=O)N2CCN(Cc3cc(=O)n4nc(-c5ccccc5Cl)sc4n3)CC2)cc1 | inactive |
| CCOC(=O)/C(C)=C1\NC(C)(C)Cc2ccccc21 | inconclusive: 22.4 µM [inhibitor, single point] |
| Cc1ccc(OCCCC(=O)Nc2ccc(N3CCOCC3)cc2)c(C)c1 | inconclusive: 3.98 µM [inhibitor, partial curve] |
| O=C(Nc1ccc2nn(-c3ccccc3)nc2c1)c1ccc(-c2cccc(Cl)c2)o1 | inconclusive: 0.562 µM [inhibitor, full curve] |
| CC(C)(C)c1ccc(-c2noc(CCC(=O)N3CCOCC3)n2)cc1 | inconclusive: 15.8 µM [inhibitor, single point] |
| COc1ccc(CNC(=O)C2CCN(S(=O)(=O)c3cccc4nonc34)CC2)cc1OC | inactive |
| CC(/C=C/c1cccc([N+](=O)[O-])c1)=N/NC(=O)c1cccnc1 | inconclusive: 28.2 µM [inhibitor, partial curve] |
| CCN(CC)S(=O)(=O)c1cccc(-c2cn3cc(C)ccc3n2)c1 | inactive |
| c1ccc(COc2ccc(OCCN3CCCCC3)cc2)cc1 | inactive |
| Cc1ccc(NC(=O)Cn2c(=O)ccc3cc(S(=O)(=O)N4CCC(C)CC4)ccc32)cc1Cl | inconclusive: 20 µM [activator, partial curve] |
| CCCC(=O)N1CCN(c2ccc(NC(=O)c3ccc([N+](=O)[O-])o3)cc2)CC1 | active: 3.98 µM |
| O=C(Nc1nc2c(s1)CCCC2)c1ccc(Br)s1 | inconclusive: 1.12 µM [inhibitor, partial curve, poor fit] |
| O=C(C(=O)N1CCOCC1)c1cn(CC(=O)N2CCc3ccccc3C2)c2ccccc12 | inactive |
| OCC(O)C(O)C(O)C(O)C1NCCS1 (stereo unspecified) | active: 20 µM |
| COc1cc(OC)cc(-c2nnc(Sc3ccc(C=O)cc3[N+](=O)[O-])o2)c1 | active: 25.1 µM |
| O=C(COc1cccc(C(F)(F)F)c1)N1CCN(c2ccc(O)cc2)CC1 | inconclusive: 25.1 µM [inhibitor, single point] |
| COc1ccc([N+](=O)[O-])cc1NC(=O)COC(=O)c1ccccc1C(=O)c1ccccc1 | inactive |
| Cc1cc(O)c(C(C)C)cc1Cl | inactive |
| Fc1ccc(CNc2nc(-c3ccccc3)cc(C(F)(F)F)n2)cc1 | inactive |
| CCC(C)C(=O)Nc1ccc(OC)cc1OC (stereo unspecified) | inactive |
| COc1ccccc1N1CCN(C(=O)c2ccc3nc[nH]c3c2)CC1 | inactive |
| CCOC(=O)c1ccc(Nc2ncnc3nc[nH]c23)cc1 | inactive |
| CCN(CC)c1ccc(NC(=O)CSc2ccsc2[N+](=O)[O-])c(C)c1 | inconclusive: 31.6 µM [inhibitor, partial curve] |
| COc1cccc(CN(C)CC(=O)Nc2sc3c(c2C#N)CCC3)c1OC | inconclusive: 39.8 µM [inhibitor, single point] |

| Compound | Potency |
| --- | --- |
| Cc1ccc(F)cc1NC(=O)N1CCN(C2c3ccccc3-c3ccccc32)CC1 | inconclusive: 15.8 µM [inhibitor, partial curve, poor fit] |
| CCN1/C(=C\c2ccc3cc(C)ccc3[n+]2CC)Sc2cc(C)c(C)cc21 | active: 7.94 µM |
| CN1CC=C2C(C#N)=C(N)C(C#N)(C#N)[C@H](c3ccoc3)[C@H]2C1 | active: 22.4 µM |
| CC1=NC(=O)C(N=Nc2ccccc2C(=O)O)N1c1ccccc1 (stereo unspecified) | active: 5.01 µM |
| CC(=O)OCC1OC(C#Cc2ccc(C)cc2C)C=CC1OC(C)=O (stereo unspecified) | inconclusive: 3.55 µM [inhibitor, partial curve] |
| O=C(Nc1ccccc1)C1=C(N2CCOCC2)/C(=C/c2cccnc2)CC1 | inconclusive: 20 µM [inhibitor, partial curve] |
| Cc1ccc(NC(=O)C2CCCN2S(=O)(=O)c2cccc3cccnc23)cc1C (stereo unspecified) | inconclusive: 14.1 µM [inhibitor, single point] |
| CCc1cc2c(N=Nc3c(O)[nH]c4ccccc34)ncnc2s1 | inconclusive: 1.78 µM [inhibitor, partial curve] |
| CC1(C)COCN1S(=O)(=O)c1ccc(C(=O)Nc2nnc(-c3ccc(Cl)s3)o2)cc1 | inconclusive: 31.6 µM [inhibitor, single point] |
| CCN(CC)c1ccc(C2C(C(N)=O)=C(C)Nc3ncnn32)cc1 (stereo unspecified) | inactive |
| O=C(Oc1ccccc1)c1ccccc1OS(=O)(=O)c1ccccc1 | inactive |
| Oc1ccc(C(c2nnnn2C2CCCCC2)N2CCOCC2)cc1 (stereo unspecified) | inconclusive: 39.8 µM [inhibitor, single point] |
| CCc1cccc(N=c2c([N+](=O)[O-])nn(-c3ccc(Cl)cc3)n2O)c1 | inconclusive: 10 µM [inhibitor, partial curve] |
| Cc1ccc(-n2c(=O)c3oc4ccccc4c3n(CC(=O)Nc3ccccc3)c2=O)cc1C | inactive |
| O=C1CC(c2ccc(F)cc2)Cc2nc(N3CCc4ccccc43)ncc21 (stereo unspecified) | inactive |
| Cc1cc(NC(=O)c2sc(Nc3cccc(C(F)(F)F)c3)nc2N)no1 | active: 11.2 µM |
| Cc1ccc(N=N/C(=C\O)C(=O)c2ccc(Cl)cc2)cc1 | active: 28.2 µM |
| COc1ccc(N2CCN(C(=O)Nc3cccc(C(F)(F)F)c3)CC2)cc1 | inconclusive: 28.2 µM [inhibitor, partial curve] and inconclusive: 15.8 µM [inhibitor, partial curve, poor fit] |
| CCc1ccccc1NC(=O)Cc1c(C(=O)O)[nH]c2ccc(Cl)cc12 | inconclusive: 14.1 µM [inhibitor, partial curve, poor fit] |
| CC(C)n1c(O)c(N=Nc2ccc(Cl)c(C(=O)O)c2)c2ccccc21 | active: 15.8 µM |
| Cn1c(=O)c2c(nc(N/N=C/c3cccs3)n2C)n(C)c1=O | inconclusive: 8.91 µM [inhibitor, partial curve] |
| CCn1c2ccccc2c2cc(N=C3SC(CC(=O)Nc4ccccc4OC)C(=O)N3C)ccc21 (stereo unspecified) | inactive |
| Cc1cc(-n2c(C)nc3ccccc3c2=O)ccc1NC(=O)c1cccc([N+](=O)[O-])c1 | inconclusive: 1.12 µM [inhibitor, partial curve] |
